Over roughly 33,000 sequences, “E-score (-0.5 to 0.5)” has its median near -0.012; the highest 2% begin near 0.29. The list shows a part of the results.
Each sequence was assayed against T1, Ybr033w (UniProt P38073) (assay: PBM E-score (8-mer binding enrichment) (E-score (-0.5 to 0.5)); higher = stronger / more preferred TF binding; most listed sequences are background and not binding sites). Conditions: protein concentration: 200 nM; construct: GST-full length.
T1 sequence: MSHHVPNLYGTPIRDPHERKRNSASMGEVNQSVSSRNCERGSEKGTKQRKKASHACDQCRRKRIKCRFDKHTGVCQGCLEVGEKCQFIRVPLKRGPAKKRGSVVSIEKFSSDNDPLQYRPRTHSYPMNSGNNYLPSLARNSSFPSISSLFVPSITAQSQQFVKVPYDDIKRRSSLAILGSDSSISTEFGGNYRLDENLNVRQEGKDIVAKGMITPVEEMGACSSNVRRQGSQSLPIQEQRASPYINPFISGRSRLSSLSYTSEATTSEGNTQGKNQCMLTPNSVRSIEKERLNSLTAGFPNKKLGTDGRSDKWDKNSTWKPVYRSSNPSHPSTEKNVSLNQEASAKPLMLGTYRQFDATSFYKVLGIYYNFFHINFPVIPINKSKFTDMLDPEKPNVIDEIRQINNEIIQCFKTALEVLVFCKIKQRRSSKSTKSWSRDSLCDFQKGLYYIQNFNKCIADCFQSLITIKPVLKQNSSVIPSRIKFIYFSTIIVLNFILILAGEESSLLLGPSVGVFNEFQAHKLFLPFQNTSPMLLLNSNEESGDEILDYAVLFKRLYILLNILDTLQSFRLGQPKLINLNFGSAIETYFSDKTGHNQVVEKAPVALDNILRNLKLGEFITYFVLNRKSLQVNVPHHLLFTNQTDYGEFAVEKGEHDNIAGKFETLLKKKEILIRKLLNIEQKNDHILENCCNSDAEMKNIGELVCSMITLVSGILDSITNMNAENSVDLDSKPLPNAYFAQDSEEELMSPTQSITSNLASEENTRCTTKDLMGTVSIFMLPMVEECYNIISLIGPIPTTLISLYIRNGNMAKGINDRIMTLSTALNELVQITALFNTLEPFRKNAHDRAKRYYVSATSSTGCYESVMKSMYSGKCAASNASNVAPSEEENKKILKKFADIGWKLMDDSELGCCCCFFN
In short: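 Detection of bound protein used fluorescent anti-GST, with scans normalised by masliner. The proteins were GST-tagged yeast transcription factors applied at about 100-200 nM to universal all-10-mer Agilent arrays made double-stranded by primer extension. Each ungapped eight-base word, pooled with its reverse complement, was scored with an E-score from the Universal PBM Analysis Suite.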

Sequence	PBM E-score
GCGGCCAA	-0.154
ATTCCTGG	-0.0389
GAAGGGGA	-0.126
ATTACTAG	-0.0823
ACATGGGA	0.0315
GGCTTGTA	-0.0511
GTAATCAC	-0.0232
AGCGCACA	-0.0519
ATCGGGAA	0.0829
CGTAGTTA	0.0219
CCGATCAG	-0.113
TACCCAGA	0.0301
CACGCGTG	-0.0893
ACGTTAAT	0.124
CACCGAAC	-0.112
AACCGTAC	-0.105
CCCCGTTC	-0.163
GATAAGCC	-0.164
ACCCACCG	-0.0329
CCGCTCCA	-0.27
AGGCGTGA	-0.254
CAAGGCAG	-0.105
CCTCAAGG	-0.109
TGGCGTAA	-0.0667
AAAGAGGC	-0.0851

Sequence	PBM E-score
CGATCCAC	-0.0709
ATGCAGGC	-0.293
ATTCCACC	0.208
AAGGGAAT	0.0801
ACTGACAC	-0.0621
GAGCCGAA	-0.133
ATCGAAGA	0.131
CTCCTCTC	-0.304
GCCCCCAC	-0.415
CGTAATAA	0.154
TTCCACAA	0.314
TACAGCCA	-0.0291
CGTATCGC	0.0225
CGCACTAA	0.0977
ACGAGGAC	-0.181
CGGATCAC	-0.0588
GCCTTACA	-0.15
CCACCGTC	-0.21
TATGCTAA	0.11
AGTAAGCG	0.0971
AAGTTCTC	0.0618
TATACGGA	0.152
CCCTTTAA	-0.0358
AGACAGCC	-0.192
CTGAACGA	-0.104

Sequence	PBM E-score
CACGCCTG	-0.229
AAGTACCG	0.0607
CGCATTGC	-0.0541
ATGCCGTA	-0.129
CACACACC	0.0464
CTCCGGCC	-0.259
CTCTCTCA	-0.0712
CATCTCAC	0.0316
GTCACATA	0.107
AACCGATC	-0.164
AGCACCAA	0.0937
ACATCGTG	-0.0132
AAGGATTG	0.126
AAGTTTGT	0.269
CCATCCGC	-0.137
TCGATCGA	-0.0729
ACATTTAG	-0.0589
GCTCGCGA	0.0005
GATAGGTA	0.152
AATCCTGG	0.0204
CGCCGTGC	-0.111
CATGCCAG	-0.113
GAAGGTGC	-0.224
CGCTTAGA	-0.0786
GTTCTCTA	-0.0219

Sequence	PBM E-score
CATCGCCA	-0.208
GATATCTA	0.0989
AAACCCTT	-0.0128
AACTGGCC	0.0651
CCAAGATA	0.0894
AGCGTTAT	-0.0172
ACGATGTC	-0.154
CTTCTCGC	-0.0908
CGGCTGAC	-0.078
AGCTACAC	0.0817
AGCGAACG	-0.283
GATACAGA	-0.0116
ACGAATCG	0.073
CGGTTGCA	-0.122
CGGAGCCG	-0.211
GATACCTA	0.185
ATCATGAG	0.119
CGTTTCTA	0.188
ATTTCGCC	0.0897
CCCACGAA	-0.114
CTTAGGAC	-0.229
AGTGTTTG	0.118
TACTAGCA	-0.0113
TCCAGTAA	0.0303
CAGAAGGG	-0.323

Sequence	PBM E-score
CCGCCAGA	-0.0108
ACGCCACG	-0.323
GACACACA	0.0158
ATCCGCCC	-0.0758
CAGCAGCC	-0.152
CCCATGCC	-0.354
CACGCAAC	0.0617
AACACCTA	0.0452
ACGGTCAC	-0.322
GCTACCCC	-0.323
CGTACCAC	0.101
ATATATTA	0.306
GTGAACAC	-0.15
GGCGCGAA	0.0314
AGTGACCA	0.0221
AGTAAGTG	0.00718
TCTTAGCA	-0.0923
ACACGCAC	-0.0468
ACACTGTG	0.0821
TCCGAACA	0.119
AAAGGGGA	-0.276
CGCGCGAC	-0.017
TGTTAGAA	0.147
ACACCTAT	0.154
GTATAAAA	0.289

Sequence	PBM E-score
GCCTCTCA	-0.261
CATCCCGA	-0.0143
GGCTGGGA	-0.245
GGTTTCAC	0.0871
GTAACTTA	0.15
TCGTTAGA	0.0721
ACGAGTGA	-0.12
ACAACATG	0.124
ATGCGGAG	-0.179
AGTTCTAT	0.0629
CTGTTGGC	-0.0935
CCGTGAGG	-0.201
CGATACTC	-0.0379
CCCAGGCA	-0.175
AACGGCCG	0.0909
AACCTCTC	-0.126
AGACGTAC	-0.127
ATAGTACA	0.214
CGGTGTAG	-0.227
ACTTGCGC	-0.137
CCATTCTC	-0.127
AGCTGCGC	-0.00242
AGGGAAGG	-0.299
TAAATCTA	0.238
ACCACTTC	0.00812

Sequence	PBM E-score
AAGCATCA	-0.068
AACGCAAT	0.202
TCTCAAGA	-0.0348
AATAGAGC	0.206
GGCCCGGA	-0.247
AAGAGTAC	0.0539
CCGCGCCC	-0.275
GTCTTGGA	0.0685
CGTATGGC	-0.0236
GCTCCCGA	-0.27
CGAGGTCA	-0.0726
CAAAATCA	0.194
ACGCAAAC	0.0104
ACCCCAGC	0.0611
ATTACGAA	0.197
CCCGACAG	-0.0978
CCCATCAG	-0.301
TATTTTAA	0.26
CGGCATAG	-0.0538
CCCGTTAG	-0.31
AGGCCGGC	-0.304
ATATGAAT	0.182
ATGAACTA	0.303
AGGTGCTA	0.0479
GATGGTGC	-0.388

Sequence	PBM E-score
ATGTCTAG	0.105
CCTCGGTA	-0.241
CCCAGCCA	-0.0683
ATACGTGA	0.0823
CGCGTTAG	0.00864
ACCTATGC	-0.0454
ACGTCTTC	-0.214
AAGACCGC	-0.0727
TCCGGAGA	0.0833
ACCAACTA	0.228
CCACCTAG	-0.253
CATCATCG	-0.00089
GCTGGGCA	-0.0135
TAGGCAGA	0.159
AGCGTGAA	-0.0452
AGGTCCTC	-0.0989
ATCTGACC	0.0609
ATTTACGA	0.224
GAGTGATC	-0.0135
GAGCGCGA	-0.00516
CACGGAAG	-0.0633
GCTGCTCC	-0.33
AACGTAGC	-0.21
ATGACTTA	0.179
CGCTGTAC	-0.195

Sequence	PBM E-score
CGCCGTCA	-0.0829
TCCGCTAA	-0.158
ACCCTTCT	-0.213
ACATGGGC	0.0373
CTGGATTA	0.309
TCGCTGCA	-0.178
TTACACAA	0.277
CTGTAGAC	0.0148
CGCGCGCG	0.0564
ATACTCGA	0.0384
GCTTAGAA	0.0531
AATCCATC	0.14
CTGTAGCA	-0.0279
GGCTCGGA	-0.197
CAAGCGAA	-0.0787
ATTTGGGG	-0.032
TCGGCCCA	-0.108
CTGGTTAC	-0.119
ATCTTAAT	0.196
CAAAGTTA	0.279
CCTTAGTC	-0.225
AGCAACTA	0.204
GAGGCGAC	-0.186
AAGGCCGG	-0.077
GGTAGGGA	-0.144

Sequence	PBM E-score
TCGTTACA	-0.00512
CCCTTAAA	0.0698
CCCATATC	-0.0327
ATTTCCAG	0.163
GCTTCTAA	-0.0251
CGCAACAA	0.0565
AAAACAAC	0.103
ATTGCTTC	0.0144
AAAATAAG	0.207
CACATAGG	0.0579
CCTCCATC	-0.224
CAGGTTGA	-0.13
GCGCCTCA	-0.158
CGAACGCA	0.129
AACCGGCA	-0.203
CACTCAAG	-0.128
ACATTTCT	0.146
AGGGCAAC	-0.106
CCATGCAG	-0.0588
ATCGCGGC	-0.0546
CGGAGTGC	-0.0705
AGCGTTTG	-0.0651
GGGCGGGA	-0.116
AGCAGCAA	-0.0645
ACAGGGGT	-0.304

Sequence	PBM E-score
AGGATCGC	-0.0037
CGAGTACA	0.0824
ACGACCGT	-0.264
GCAGGCAC	-0.352
ACCAACAC	-0.0108
CCGTCCAA	0.00517
GACTCCAC	-0.234
AGCTGCAC	-0.22
ACCCTTAA	-0.0676
ACTACCCT	0.0229
CTAAGAAA	0.185
TCGGGCCA	-0.193
AACTCACA	0.191
CCAACCAC	0.119
ACTCTTTG	-0.0406
CCCGCTAC	-0.0393
AGAAACAC	0.198
ACTTACAT	0.0223
ACCATAAC	0.0929
GACGTCAC	-0.199
AAAAGGAT	0.256
CACGTAAA	-0.0948
CCTCTGTC	-0.125
GAGTTCCA	0.0441
CTCAGTAC	-0.0532

Sequence	PBM E-score
ACTGGCTA	-0.258
AGCGTGCC	-0.184
CGTTTCTC	0.00507
CGCCCCAA	-0.118
GCTGTCCC	-0.22
AGGAGTAG	-0.0617
AGATAGGA	0.00058
ACATCGAA	0.144
CATAAAAG	0.0715
CCACCTAC	-0.216
AACTCCAA	0.169
AGGACCAA	-0.0664
CAACAAGA	0.214
ATGGATGG	-0.187
CGGCTCGA	0.118
ATTACCGG	-0.0592
CATCCTGG	0.131
TCTAGTAA	0.171
ACAGCCGT	-0.0948
CGTAGGAA	-0.00832
CCATTGGC	-0.144
AGTTTCGA	0.137
ATTAGCAG	0.0537
ATTACTAC	0.176
TCGCGCCA	0.0305

Sequence	PBM E-score
TCATTAGA	0.135
AGACCTGG	-0.159
ATGCTAGA	0.0828
ACCGAACC	-0.212
GGCGTATA	-0.054
AAGTTATA	0.166
ACGGAGAC	0.0475
GCTAGCGA	-0.161
ACAAAGCG	0.151
GATTAACA	0.396
ACCCGAGT	-0.0747
ACTAACCG	0.0897
ATAAGAAA	0.209
AACTTTCC	0.078
TACCTACA	0.0856
ATCGTAGA	-0.0122
TTATCGAA	0.244
CTAACTCC	-0.0896
CTTACGTA	0.014
AACGAGAA	0.0786
AACGAAAA	0.17
TAGTCGGA	0.209
ATGCTTTC	0.0556
GAACTTGA	0.181
ACGGACCG	-0.21

Sequence	PBM E-score
AAAAGAAG	0.21
GGTATTTA	0.125
CTATAGAA	0.22
GATGATCC	0.4
AGGTGGTG	-0.0778
CCGGAGAG	-0.195
CTAACCGC	-0.142
ACTCGGGC	-0.108
GTTGTCGA	-0.101
GATGCACA	-0.118
ATTTCCCC	-0.0347
AGCACATA	-0.00876
ATGATGTA	0.209
CGCTGGAG	-0.0626
CACGAACG	-0.0927
CTAACGTC	-0.0213
GAGGACTA	-0.0177
GAGTGACA	0.056
ACCGCCTG	-0.216

From the supplement of paper PMC3334620
